Key:
[1] = molecular target: T1, three-domain catalytic fragment of human MASP-2 (hMASP-2cf) (human, UniProt O00187 298-686); assay: enzyme inhibition assay (equilibrium inhibitory constant KI from residual activity); constant enzyme co-incubated with serial dilutions of inhibitor for 2 h at room temperature; 20 mM HEPES, 145 mM NaCl, 5 mM CaCl2, 0.05% Triton X-100, pH 7.5; residual activity on 250 μM Z-Lys-SBzl with DTNB at 410 nm; fit of free enzyme by Eq. 1; details: both partners purified
T1 construct: also called Human MASP-2cf; source: recombinant, produced as described previously (60–62)

[2] = molecular target: T2, catalytic fragment of rat MASP-2 (rMASP-2cf) (rat, UniProt Q9JJS8 298-685); assay: as above; details: both partners purified
T2 construct: extra Met-Thr dipeptide at the N terminus; Rat MASP-2, catalytic fragment from Gln-298 to Phe-685 according to UniProt entry Q9JJS8; also called Rat MASP-2cf; source: recombinant, produced similarly to hMASP-2cf (61)
T2 sequence (Q9JJS8 other isoform, or with tags, fused parts or gaps): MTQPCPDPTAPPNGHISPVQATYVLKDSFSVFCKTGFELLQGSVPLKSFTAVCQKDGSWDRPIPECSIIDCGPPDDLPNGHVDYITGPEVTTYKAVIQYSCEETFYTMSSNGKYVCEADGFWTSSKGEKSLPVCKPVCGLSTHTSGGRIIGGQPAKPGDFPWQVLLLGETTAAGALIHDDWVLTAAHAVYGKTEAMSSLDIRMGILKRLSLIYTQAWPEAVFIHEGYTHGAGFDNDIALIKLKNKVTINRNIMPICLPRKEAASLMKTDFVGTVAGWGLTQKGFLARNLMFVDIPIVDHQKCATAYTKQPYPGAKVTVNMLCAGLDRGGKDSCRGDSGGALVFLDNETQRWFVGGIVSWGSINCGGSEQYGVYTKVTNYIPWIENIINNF

T1 sequence (O00187 298-686): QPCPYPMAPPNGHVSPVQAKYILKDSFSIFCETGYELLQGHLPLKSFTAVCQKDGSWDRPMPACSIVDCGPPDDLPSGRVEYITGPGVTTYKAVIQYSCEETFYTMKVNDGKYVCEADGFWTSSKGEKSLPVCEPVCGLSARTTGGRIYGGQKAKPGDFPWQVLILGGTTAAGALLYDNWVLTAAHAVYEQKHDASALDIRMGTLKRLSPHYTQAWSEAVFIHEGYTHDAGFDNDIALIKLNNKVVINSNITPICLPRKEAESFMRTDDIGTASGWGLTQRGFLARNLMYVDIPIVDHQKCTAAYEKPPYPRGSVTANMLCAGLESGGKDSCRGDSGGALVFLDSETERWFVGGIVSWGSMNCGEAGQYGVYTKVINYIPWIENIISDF

B1: second Kunitz domain of human tissue factor pathway inhibitor 1 (TFPI1 D2) (domain or fragment)
chain: not shown
notes: Second Kunitz domain (D2) of human TFPI1, […]; also called TFPI D2; source: E. coli, purified to homogeneity (S100A4 fusion expression vector)
[1]
  Ki: 1880 nM
[2]
  Ki: 185 nM

From publication PMC6527154, “Novel MASP-2 inhibitors developed via directed evolution of human TFPI1 are potent lectin pathway inhibitors” (The Journal of Biological Chemistry, 2019)
